Test results taken from PubChem BioAssay AID1458 (National Center for Advancing Translational Sciences (NCATS), 2008).
Out of some 210,000 compounds screened, about 5,900 (2.8%) were called active. Inconclusive means that the source gave no clear call. Such entries were picked first, then a sample of the others. The call rests on the fitted dose curve; in most records, active means well fitted activation curve with a large enough effect; inconclusive means small, poorly fitted or top-dose-only effect; inactive means no such curve, though single readings can be large or run the other way. Potencies beside an inconclusive call are fits to weak or partial responses and may not hold up.

Test: qHTS Assay for Enhancers of SMN2 Splice Variant Expression; further: nearly all actives have a fitted effect of over 55% in size; on activity change, positive = activation: % of control where 0% means no effect
Settings: HEK293 SMN2-luciferase splicing reporter, luminescence, 30-36 h; activity change, positive = activation: at 46.1 µM (top of the series)
Outline: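 HEK293 cells carry an SMN2 minigene-luciferase reporter in which exon 7 inclusion puts luciferase in frame. Cells were seeded at 2000 cells/well, attached for 10-12 hours, then exposed to compounds for 30-36 hours at 37C before ONE-Glo luminescence.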
Potency means the concentration at half of the fitted maximal effect; tags describe the fitted curve by direction and shape.

SMILES	Potency	activity change, positive = activation
COc1ccc(N2CCCn3c2nc2c3c(=O)n(Cc3ccc(F)cc3)c(=O)n2C)c(OC)c1	inconclusive: 0.708 µM [activator, full curve]	
O=C(COC(=O)c1ccccc1O)Nc1ccc(OC(F)F)cc1	inconclusive: 2 µM [activator, partial curve, poor fit]	
CCn1c(SCC(=O)c2ccc([N+](=O)[O-])cc2)nnc1-c1ccc(Cl)cc1	inactive	
O=C(c1ccc(CSc2ccccc2)cc1)N1CCCCCC1	inconclusive: 22.4 µM [activator, single point]	
COC(=O)c1c(-c2ccccc2)csc1NC1=NS(=O)(=O)c2ccccc21	active: 0.562 µM	
CCCCCC(=O)Nc1ccc2oc(-c3cccnc3)nc2c1	inconclusive: 10 µM [activator, partial curve]	
O=C(COc1ccc(Br)cc1Cl)NC(=O)Nc1ccc2c(c1)OCCO2	inconclusive: 14.1 µM [activator, partial curve, poor fit]	
CCCCn1c(N)c(N(CCC(C)C)C(=O)CSc2nnc(Nc3ccccc3)s2)c(=O)[nH]c1=O	inactive	
CCC1=C(OC(=O)N(CC)CC)N2C(=O)OC(=NCC(=O)OC)[C@]2(Cc2ccccc2)[C@H]2C1=CC[C@H]1C(=O)N(C)C(=O)[C@H]12	inactive	
O=C(CN1C(=O)c2cccnc2C1=O)c1ccccc1	inconclusive: 12.6 µM [activator, partial curve]	
COC(=O)C1=C(C)Nc2c(c(=O)n(C)c(=O)n2C)C1c1ccc(C)cc1 (centres undefined)	inconclusive: 22.4 µM [activator, single point]	
Cc1nn(-c2ccccc2)c(Cl)c1/C=N/O	inconclusive: 35.5 µM [activator, single point]	
C/C(=N\NC(=O)c1nn(C)c(C)c1Br)c1cccc(NC(=O)c2ccc(F)cc2)c1	inconclusive: 25.1 µM [activator, single point]	
COc1ccc(NC(=O)CSc2nnc(NC(=O)c3ccco3)s2)cc1	inconclusive: 8.91 µM [activator, partial curve, poor fit]	
CCN(CC)c1ccc(NC(=O)/C=C\c2ccccc2Cl)cc1	inconclusive: 14.1 µM [activator, partial curve]	
Cc1ccc(C(c2nnnn2Cc2cccs2)N2CCN(Cc3ccc4c(c3)OCO4)CC2)cc1 (centres undefined)	inconclusive: 3.55 µM [activator, full curve, poor fit]	
C=C1C2(C(=O)Nc3ccc(SC(F)F)cc3)CCC(C2)C1(C)C (centres undefined)	inactive	
O=C(Cc1ccccc1[N+](=O)[O-])NCc1ccccc1Cl	inconclusive: 17.8 µM [activator, single point]	
COc1ccc(NC(=O)c2cc(-c3ccc(C)o3)nc3ccccc23)cc1OC	inactive	
C#CCn1cc(/C=N/NC(=O)c2cc3ccccc3o2)c2ccccc21	inactive	
C[C@H](N=C(NC#N)Nc1ccncc1)C(C)(C)C	inactive	
COc1cccc(CNC(=O)C2CCN(c3nnc(-n4c(C)ccc4C)s3)CC2)c1OC	inactive	

SMILES	Potency	activity change, positive = activation
CCn1c(NCc2cccc(OC)c2OC)nc2ccccc21	inconclusive: 20 µM [activator, single point]	
O=C(C1=C(O)C(=O)N(CCOCCO)C1c1cccs1)c1cccs1 (centres undefined)		inconclusive: 61.4% [activator]
O=C(/C=C/c1ccccc1)N1CCN(C(=O)c2ccco2)CC1	inconclusive: 31.6 µM [activator, single point]	
Cc1cccc(-n2ncc3c(NC4CCCCC4)ncnc32)c1	inconclusive: 4.47 µM [activator, partial curve, poor fit]	
O=C(Nc1ccc(N2CCOCC2)cc1)c1cccnc1	inconclusive: 6.31 µM [activator, full curve]	
CC(C)(C)CC(=O)O/N=C(\N)c1ccccn1	active: 7.08 µM	
CCN(CC)c1ccc2c(C)c(-c3ccc(N)cc3)c(=O)oc2c1	inconclusive: 31.6 µM [activator, single point]	
COc1ccccc1CNC(=O)CCCn1c(=O)c2ccccc2n(CC(=O)Nc2c(C)cc(C)cc2C)c1=O	inactive	
Cc1ccc(S(=O)(=O)NC2c3cccc4cccc(c34)C2Sc2nncn2C)cc1 (centres undefined)	inconclusive: 7.08 µM [activator, full curve, poor fit]	
Cc1ccc(S(=O)(=O)NCc2nc(-c3cccc(C)c3)no2)cc1	inactive	
COc1ccc(-c2nnc(NC(=O)c3cc(C)on3)s2)cc1	inconclusive: 12.6 µM [activator, single point]	
Cn1c(-c2ccc3c(c2)OCO3)cnc1NCc1ccccc1Cl	inconclusive: 20 µM [activator, partial curve, poor fit]	
Cc1cc(/C=N\NC(=O)c2cccs2)c(C)n1-c1ccc2ncccc2c1	inconclusive: 14.1 µM [activator, single point]	
COc1ccc(Nc2nc(N)c3cc(OC)c(OC)cc3n2)cc1	inactive	
COc1ccccc1-n1cnc2cc(NCc3cccs3)ccc21	inconclusive: 2.24 µM [activator, single point]	
CC(=O)N/C(=C/c1ccc(OS(=O)(=O)c2ccc(C)cc2)cc1)C(=O)NCCO	inconclusive: 0.112 µM [activator, full curve]	
CN(C)C(=O)COC(=O)c1ccccc1Nc1ccc(SC(F)F)cc1	active: 12.6 µM	
O=C(Cn1nc(Cc2ccncc2)c2ccccc2c1=O)N1CCN(C(=O)c2ccco2)CC1	inconclusive: 3.98 µM [activator, single point]	
Cc1ccc(C(=O)/C=C/Nc2ccc(S(=O)(=O)Nc3onc(C)c3C)cc2)cc1	inconclusive: 11.2 µM [activator, single point]	
COc1ccccc1-c1nnc(SCC(=O)Nc2ccccc2)o1	inconclusive: 4.47 µM [activator, partial curve, poor fit]	
O=C(Cc1c(F)cccc1Cl)Nc1ncc([N+](=O)[O-])s1	inconclusive: 35.5 µM [activator, single point]	
Cc1ccc(/C=N/Nc2ncc(Cl)cc2Cl)s1	inconclusive: 20 µM [activator, single point]	
